In PubChem BioAssay AID1745853 (National Center for Advancing Translational Sciences (NCATS), 2022):
The list shows a part of the results. These are further read-outs of the screen, such as a control signal, another cell line or another target. No call is given for them.

Tests used:
Test in all cases: Primary Screen for Target Class Profiling of Small Molecule Inhibitors of Methyltransferases
[1] = molecular target: Glycine N-methyltransferase (Homo sapiens) (UniProt Q14749); settings: purified enzyme, MTase-Glo SAH luminescence; measured here: GNMT inhibition; at 40 µM; stronger effect = lower value
How it was run: (§1)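 Each enzyme was reacted with SAM and its substrate, with compounds tested once at 40 uM; SAH formed was read by MTase-Glo luminescence.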

[2] = molecular target: Guanidinoacetate N-methyltransferase (Homo sapiens) (UniProt Q14353); settings: purified enzyme, MTase-Glo SAH luminescence; measured here: GAMT inhibition; at 40 µM; stronger effect = lower value
How it was run: as §1

[3] = molecular target: Histamine N-methyltransferase (Homo sapiens) (UniProt P50135); settings: purified enzyme, MTase-Glo SAH luminescence; measured here: HNMT inhibition; at 40 µM; stronger effect = lower value
How it was run: as §1

[4] = molecular target: Nicotinamide N-methyltransferase (Homo sapiens) (UniProt P40261); settings: purified enzyme, MTase-Glo SAH luminescence; measured here: NNMT inhibition; at 40 µM; stronger effect = lower value
How it was run: as §1

[5] = molecular target: Phenylethanolamine N-methyltransferase (Homo sapiens) (UniProt P11086); settings: purified enzyme, MTase-Glo SAH luminescence; measured here: PNMT inhibition; at 40 µM; stronger effect = lower value
How it was run: as §1
On the % scale 0 is the no-effect control and ±100 the full control effect.

Compound | activity change, negative = inhibition [1] [%] | activity change, negative = inhibition [2] [%] | activity change, negative = inhibition [3] [%] | activity change, negative = inhibition [4] [%] | activity change, negative = inhibition [5] [%]
CCCN1C(=O)c2c(C(=O)NCc3ccc(CC)cc3)ncn2CC1(C)C(=O)NCc1ccc(C)cc1 (stereo not given) | 2.16 | 0 | 3.12 | -2.08 | 8.05
O=C(NCc1ccccc1Cl)c1ccc2c(=O)nc3c(-c4cccc(F)c4)n[nH]n3c2c1 | -10 | 3.87 | -1.2 | -14.1 | -4.49
CC1(C(=O)NC2CCCC2)Cn2c(ccc2-c2ccco2)C(=O)N1CCCc1ccccc1 (stereo not given) | -11.7 | 1.99 | 1.99 | -3.91 | -13.4
CC(=O)N1CCN([C@H]2[C@@H]3OC[C@@H](O3)[C@@H](NCc3ccccc3O)[C@@H]2O)CC1 | -2.8 | -7.24 | -0.968 | -5.03 | 0.837
CCOC(=O)c1cc2n(n1)CC(C)(C(=O)NCc1ccc(C)cc1)N(c1cccc(Cl)c1C)C2=O (stereo not given) | 7.66 | 0.639 | 4.24 | 2.69 | 5.79
CCCn1c(C)cnc1C1CCNC1 (stereo not given) | -7.26 | -7.66 | -21.3 | -11.4 | -3.85
CCOc1ccc(C2c3cccn3-c3sc4c(c3CN2C(=O)Nc2ccc(C)c(F)c2)CCCC4)cc1 (stereo not given) | 3.91 | 3.46 | 0.878 | -0.166 | 5.72
COc1ccc(CCN(CC2CCN(C)CC2)C(=O)C2CC23CCC3)cc1 (stereo not given) | 1.53 | 2.92 | 3.23 | -3.33 | 16.6
Cc1ccc(OCC(=O)c2ccc3c(c2)N(CCCC(=O)N2CCCC2)C(=O)CO3)cc1C | -3.48 | -0.182 | -3.58 | -2.83 | -1.22
OC1(CN2CCC(COc3noc4cccc(O[C@@H]5CCOC5)c34)CC2)CCOCC1 | -5.65 | -7.77 | -0.991 | -41.1 | -2.55
CC1(C)C(=O)N2c3ccccc3C(O)(CC(C(=O)O)n3cnc4ccccc4c3=O)C2N1O (stereo not given) | 3.68 | 1.11 | 7.92 | -11.3 | -0.758
O=C(NCCN1CCCCC1)[C@H]1C[C@@H](O)[C@H](O)[C@@H]2N=C(Nc3ccc4c(c3)OCO4)S[C@@H]21 | 1.21 | 3.81 | -3.86 | -3.32 | 16.5
Cn1cc(-c2ccc3c(n2)CN(Cc2ccc(F)cc2)C(=O)CO3)cn1 | -11.6 | -2.56 | -6.74 | -7.68 | -8.22
Cc1ncnc(N2CCN(C(=O)C3CCN(C(=O)C4CC4)CC3)CC2)c1C | -0.624 | 0.685 | 2.29 | 1.65 | 1.57
Cc1c(F)cc(C(=O)NC2CC2)cc1-c1ccc(C(=O)NCC(C)(C)C)cn1 | 5.72 | 5.75 | 7.39 | -12.4 | -3.34
CC(C)Cn1c(=O)c2ccc(C(=O)NC(C)C)cc2n2c(=O)n(Cc3ccccc3F)nc12 | 6.19 | 0 | -1.17 | 0.357 | 3.45
CC1CC(C)CN(S(=O)(=O)c2ccc3c(c2)oc(=O)n3CC(=O)N2CCCC2)C1 (stereo not given) | -4.47 | 0 | -2.92 | -1.14 | -12
O=C(c1ccccc1)N1CCCN(c2nc3ncccc3o2)CC1 | -3.58 | -3.04 | -10.4 | -6.11 | -3.73
O=C(CCc1nnc2n(Cc3ccc(F)cc3)c(=O)c3ccccc3n12)NCCCN1CCCC1=O | -5.83 | 0 | 3.9 | 6.46 | 0.319
CCCNC(=O)N1CC(Oc2ccc(-c3nc(C)no3)cc2)C1 | -6.66 | -10.2 | -6.22 | -14.7 | -12.3

Compound | activity change, negative = inhibition [1] [%] | activity change, negative = inhibition [2] [%] | activity change, negative = inhibition [3] [%] | activity change, negative = inhibition [4] [%] | activity change, negative = inhibition [5] [%]
COC(=O)C1=COC(OC2OC(CO)C(O)C(O)C2O)C2C(COC(=O)/C=C/c3ccc(O)cc3)C(O)C(O)C12 (stereo not given) | 0 | 1.81 | 3.58 | -10.6 | 4.83
CCn1cc(C(=O)O)c(=O)c2cc3c(cc21)OCO3 | -11 | -1.15 | -2.28 | -9.93 | -0.668
O=C(CSc1nnc2n(Cc3ccccc3)c(=O)c3ccccc3n12)NC1CCCCC1 | -4.15 | 0 | 2.71 | -16.6 | 0.202
COc1ccc(CNC(=O)C[C@@H]2O[C@H](CNCc3cccc(Cl)c3)[C@@H](O)[C@H]2O)cc1 | -0.803 | -6.35 | 0.007 | -7.22 | -4.41
O=C1Nc2nc(-c3c(O)cccc3OCC3CC3)cc([C@@H]3CCCNC3)c2CO1 | -4.75 | 5.29 | -9.67 | -35 | -11.2
CN1c2cccnc2CN(Cc2ccccc2Cl)CC[C@H]1CO | -3.2 | -3.24 | -21.3 | -11 | -3.96
Cn1nccc1OCc1cn2c(=O)n(C)cc(-c3ccc(F)cc3)c2n1 | -5.51 | -6.19 | 0.909 | -6.72 | -1.47
Cc1[nH]ccc1C(=O)N(CCN1CCCCC1)CC1CCCN(C2CCCC2)C1 (stereo not given) | -0.084 | -1.21 | -6.99 | -4.03 | 4.63
CC1(C)[C@H]2CC=C(CN3CCC(CCC(=O)N4CCN(c5ccccc5)CC4)CC3)[C@@H]1C2 | -4.5 | -5.63 | -2.42 | -7.22 | -17
O=C1c2cc3occc3n2CC(C(=O)NC2CCCCCCC2)(c2ccccc2)N1Cc1ccc(F)cc1 (stereo not given) | 2.18 | 4.56 | 0.473 | -2.41 | -4.63
CCCN1C(=O)c2c(C(=O)NCc3ccc(N(C)C)cc3)ncn2CC1(C)C(=O)NCc1ccc(F)cc1 (stereo not given) | 4.19 | 1.61 | 7.78 | 1.19 | 11.5
CCOC(=O)c1cc2n(n1)CC(C)(C(=O)NC1CCCCCC1)N(c1ccc(NC(C)=O)cc1)C2=O (stereo not given) | 6.57 | 0.546 | 5.26 | 8.1 | 4.76
CC1CCC(NC(=O)C2(C)Cn3c(nc4ccccc43)C(=O)N2Cc2ccc3c(c2)OCO3)CC1 (stereo not given) | -5.41 | -8.46 | 8.66 | -22.9 | -4.68
CC(C)Cn1c(=O)c2ccccc2n2c(SCc3ccc(F)cc3Cl)nnc12 | 1.93 | 0 | 10.4 | -7.74 | 7.84
CC1CCC2(NC1)OC1CC3C4CC=C5CC(O[C@@H]6O[C@H](CO)[C@@H](O[C@@H]7O[C@@H](C)[C@H](O)[C@@H](O)[C@H]7O)[C@H](O)[C@H]6O[C@@H]6O[C@@H](C)[C@H](O)[C@@H](O)[C@H]6O)CCC5(C)C4CCC3(C)C1C2C (stereo not given in full) | -3.43 | 3.52 | 0.62 | -13.3 | -7.53
COc1ccc(-n2cccn2)c(CN2CC[C@H](CO)[C@H](O)C2)c1 | -2.03 | -1.01 | 0.498 | 0.303 | 5.26
CCCN1C(=O)c2c(C(=O)NCc3ccc(CC)cc3)ncn2CC1(C)C(=O)NCc1ccc(F)cc1 (stereo not given) | -1.91 | 0 | 4.92 | -2.84 | 4.66
CC(C)Cn1c(=O)c2ccc(Cl)cc2n2c(SCC(=O)NC3CCCCC3)nnc12 | -1.34 | 2.28 | 2.67 | -7.48 | -2.72
O=S(=O)(c1ccc(F)cc1)N1CCC(Oc2ccc(-c3noc(C4CC4)n3)cc2)C1 (stereo not given) | -4.05 | -7.16 | -2.84 | -6.52 | -6.09
O=C(NCCc1ccc(Cl)cc1)c1ccc2c(=O)[nH]c3c(C(=O)NC4CCCC4)sc(=S)n3c2c1 | -46.8 | 3.65 | -11.6 | -51.8 | -16.1

Compound | activity change, negative = inhibition [1] [%] | activity change, negative = inhibition [2] [%] | activity change, negative = inhibition [3] [%] | activity change, negative = inhibition [4] [%] | activity change, negative = inhibition [5] [%]
Cc1cc2c(cc1Cl)N(C(=O)Nc1ccnc3ccccc13)CC2 | -54.2 | -3.53 | -8.18 | -43.3 | -21.8
C[C@@H]1CC[C@@]23CC[C@]4(C)[C@@](C=CC5[C@@]6(C)CC[C@H](O)C(C)(C)C6CC[C@]54C)(OC2=O)C3[C@H]1C (stereo not given in full) | 0 | -17.4 | -7.06 | -35.2 | -11.2
C=CC[N+]1([C@H]2C[C@H]3[C@@H]4CC[C@H]5C[C@H](OC(C)=O)[C@@H](N6CCCCC6)C[C@]5(C)[C@H]4CC[C@]3(C)[C@H]2OC(=O)CC)CCCCC1 | -0.262 | 6.64 | -76.8 | -10.7 | 2.85
COc1cc2c(cc1-c1ccc(S(C)(=O)=O)cc1)OCC(C)(C)CC2CO (stereo not given) | -5.72 | -0.682 | -1.78 | -7.96 | 6.6
O=C1CC2(CCCC2)CC(=O)N1CCCCN1CCN(c2ncccn2)CC1 | -5.02 | 1.2 | -0.74 | -11.4 | -1.17
CCCC(=O)NCCc1c2n(c3ccc(OC)cc13)CCCc1ccccc1-2 | -69.6 | -55.7 | -73.7 | -44.1 | -63.4
Cc1nn2c(c1-c1ccccc1C(C)C)N(Cc1ccc(C(=O)O)s1)CCC2 | -13.2 | -3.07 | -4.53 | -20.4 | 0.59
Cc1ncoc1C(=O)N1CCC(N2CCCC(C(=O)N3CCCC3)C2)CC1 (stereo not given) | 0.246 | 0.47 | 2.47 | -1.6 | -9.98
CC(C)(O)C1=CCC23COC(C2)C(O)(C(=O)O)CCC13 (stereo not given) | 0 | 6.02 | 8.27 | -4.1 | 4.48
COCc1ccc2c(c1)c(OC(C)(C)C(=O)NCC1CCOCC1)nn2Cc1ccccc1 | -1.47 | 2.58 | 2.76 | -1.59 | 0.958
CN(C)c1cccc(C(=O)Nc2ncc(-c3cnn(C)c3)c3c2OCC3)c1 | -12.4 | -6.18 | -3.84 | -8.73 | -7.86
Cc1noc(C)c1-c1cc(-c2ccncc2)cn2cncc12 | -24.1 | -12.2 | -12.6 | -29.4 | -21.7
CC(=O)Oc1ccc(C2Nc3c(C(=O)c4ccccc4)cc(Cl)cc3C3C=CCC32)cc1 (stereo not given) | -14.7 | -0.852 | -15.4 | -29.9 | -18.7
C[C@H]1[C@@H]2[C@@H](O)C([C@H](C)C(=O)NCc3ccc(F)cc3)CC[C@@]2(C)CC[C@@H]1NC(=O)Cc1ccccc1 (stereo not given in full) | -5.6 | -3.06 | -2.53 | -8.91 | -6.26
O=C(NOC[C@H](O)CO)c1ccc(F)c(F)c1Nc1ccc(I)cc1F | -3.58 | -0.774 | 4.49 | -17.8 | 0.029
CC(C)c1cc(-c2ccc(F)c3ccccc23)nc(N)n1 | -5.39 | 2.08 | 5.78 | -27 | -4.33
Cc1occc1C(=O)n1ccnc1 | 4.65 | -4.98 | -6.89 | -15.3 | -7.7
CC(NC(=O)CCn1ccc2cc(S(=O)(=O)N3CCCCC3)ccc21)c1ccccc1 (stereo not given) | -0.541 | 0.072 | 1.46 | -6.2 | -0.323
